# Test results reported in PubChem BioAssay (Tox21).
# “And” between values parts separate entries of the source, which are not always exact repeats. Equal values may be shown once. Inconclusive results, whose numbers are uncertain, are shown with a selection of clear calls. For some of these results: Potencies of inconclusive entries are doubtful fits and often do not repeat. The source made the active and inactive calls. Unless noted, the call rests on the fitted dose curve; in most records, active means well fitted curve in the direction sought with a large enough effect in the repeat runs; inconclusive means weak or mixed curves; inactive means no such curve, though single readings can be large; an effect the other way counts as inactive or inconclusive.
# Assays:
# [1] = qHTS assay for small molecule agonists of the p53 signaling pathway (AID 651631; calls by dose curve; further: nearly all actives have a fitted effect of over 15% in size; further: potency means the concentration at half of the fitted maximal effect); conditions: HCT-116 p53RE-bla reporter, beta-lactamase FRET ratio, 16 h; activation: at 73.3 µM (top of the series) unless noted
# How it was run: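 Agonist mode screen using a stably integrated beta-lactamase gene under p53 response elements in HCT-116 cells. Compound exposure lasts 16 h at 37 °C; fluorescence intensity is measured following 2 h FRET substrate loading.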
# [2] = qHTS assay for small molecule disruptors of the mitochondrial membrane potential (AID 720635); conditions: HepG2 mitochondrial membrane potential, Mito-MPS dye ratio; further: potency means the concentration at half of the fitted maximal effect
# How it was run: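 HepG2 cells exposed to compound 1 hr at 37C, then Mito-MPS dye 30 min. Ratio read of aggregate (540/590 nm) versus monomer (490/535 nm) fluorescence.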
# [3] = qHTS assay for small molecules that induce genotoxicity in human embryonic kidney cells expressing luciferase-tagged ATAD5 (AID 651632); further: nearly all actives have a fitted effect of over 15% in size; further: potency means the concentration at half of the fitted maximal effect
# How it was run: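 A rise in luciferase signal from ATAD5-tagged HEK293T cells marks genetic stress. Cells were exposed to compounds for 16 hr at 37C, 5% CO2, then luciferase was quantified after a 30 min room-temperature incubation with Amplite.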
# [4] = qHTS assay to test for compound auto fluorescence at 460 nm (blue) in HEK293 cell free culture (AID 720681)
# How it was run: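 Compounds were added to cell-free DMEM with 10% FBS and fluorescence read directly. The blue channel used 405 nm excitation and 460 nm emission, with triamterene as the reference fluorophore.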
# [5] = qHTS assay for small molecule disruptors of the mitochondrial membrane potential - cell viability (AID 720634; calls by dose curve; further: nearly all actives have a fitted effect of over 20% in size; further: potency means the concentration at half of the fitted maximal effect)
# How it was run: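 Cytotoxicity was quantified from ATP content by CellTiter-Glo luminescence in the same wells as the MMP dye read-out. HepG2 (2,000 cells/well) were plated overnight and exposed to compounds for 1 hr at 37 C.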
# [6] = qHTS assay to test for compound auto fluorescence at 590 nm (red) in HEK293 cells (AID 720679); conditions: red autofluorescence 540/590 nm; at 91.3 µM (top of the series)
# How it was run: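 Red autofluorescence, HEK293 cells: 2,000 cells/well; attach 4-5 hr 37C; add 23 nL cpd or DMSO; incubate o/n 37C 5% CO2; read Ex540/Em590; Rose Bengal sodium reference.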
# [7] = qHTS assay for small molecules that induce genotoxicity in human embryonic kidney cells expressing luciferase-tagged ATAD5 - cell viability (AID 651634; calls by dose curve; further: nearly all actives have a fitted effect of over 25% in size; further: potency means the concentration at half of the fitted maximal effect)
# How it was run: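 Cytotoxicity counter-readout: after 15.5 hr compound treatment at 37C, live-cell protease activity in ATAD5-luciferase HEK293T cells measured by CellTiter-Fluor fluorescence, 30 min development at 37C.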
# [8] = qHTS assay for small molecule agonists of the p53 signaling pathway - cell viability (AID 651633; calls by dose curve; further: nearly all actives have a fitted effect of over 30% in size; further: potency means the concentration at half of the fitted maximal effect)
# How it was run: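 p53RE-bla cells were treated with compound for 16 hours at 37 C. Cytotoxicity was then measured as CellTiter-Glo luminescence after 30 min at room temperature.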
# [9] = ratio activity, negative = MMP loss: at 83.2 µM (top of the series) unless noted
# On the % scale 0 is the no-effect control and ±100 the full control effect; tags describe the fitted curve by direction and shape or compound fluorescence and quenching.
compound,measurement,setting,value
O=C(CCC1CCN(Cc2ccccc2)CC1)c1ccc2c(c1)NCCCC2,Potency,[1],"inconclusive: 1.19 µM [rising, partial curve, poor fit]"
same,"ratio activity, negative = MMP loss",[2]; [9],inconclusive: 26%
CCC1(c2ccccc2)C(=O)NCNC1=O,Potency,[1],"inconclusive: 70.3 µM [activator, single point]"
same,"ratio activity, negative = MMP loss",[2]; [9],inconclusive: -20.8%
CCC(=O)c1ccc(O)cc1,Potency,[1],inactive
same,"ratio activity, negative = MMP loss",[2]; [9],inconclusive: -52.4%
CC(C)(C)c1ccc(OC(=O)c2ccccc2O)cc1,Potency,[3],active: 21.7 µM
same,Potency,[2]; [9],active: 24.3 µM
CC[N+](C)(CC)CCOC(=O)C(O)(c1ccccc1)C1CCCCC1 (stereo not drawn),Potency,[1],"inconclusive: 0.668 µM [activator, single point]"
same,Potency,[2]; [9],inactive
CN(C(=O)CCCOc1ccc2[nH]c(=O)ccc2c1)C1CCCCC1,Potency,[3],"inconclusive: 11.9 µM [activator, partial curve, poor fit]"
same,"ratio activity, negative = MMP loss",[2]; [9],inconclusive: -26.2%
CCCCNc1ccc(C(=O)OCCN(C)C)cc1,Potency,[3],inactive
O=S(=O)(O)c1cccc(S(=O)(=O)O)c1,activation,[1],inconclusive: 2.19%
same,"ratio activity, negative = MMP loss",[2]; [9],inconclusive: -7.34%
OC[C@H]1O[C@@H](OCCc2ccc(O)cc2)[C@H](O)[C@@H](O)[C@@H]1O,Potency,[3],inactive
Nc1ncn([C@H]2C[C@H](O)[C@@H](CO)O2)c(=O)n1,Potency,[3],"inconclusive: 1.19 µM [activator, full curve, poor fit]"
same,Potency,[2]; [9],"inconclusive: 33.5 µM [inhibitor, single point]"
CCCCCC(=O)O,Potency,[1],"inconclusive: 15.4 µM [falling, single point]"
same,Potency,[2]; [9],inactive
same,Potency,[4],inactive
O=C(OCCc1ccccc1)c1ccccc1,Potency,[3],"inconclusive: 21.7 µM [activator, full curve, poor fit]"
CC(C)(Oc1ccc(C2CC2(Cl)Cl)cc1)C(=O)O (stereo not drawn),Potency,[3],"inconclusive: 65.9 µM [activator, partial curve, poor fit]"
same,Potency,[2]; [9],inactive
C1=CCC(c2ccccc2)CC1 (stereo not drawn),Potency,[3],inactive
O=C(O)[C@H](O)c1ccccc1,Potency,[1],inactive
same,Potency,[2]; [9],inactive
C1N2CN3CN1CN(C2)C3,Potency,[1],"inconclusive: 0.992 µM [falling, single point]"
same,"ratio activity, negative = MMP loss",[2]; at 83.2 µM (top of the series),inactive: 3.13% and inactive: 12.6%
same,"ratio activity, negative = MMP loss",[2]; [9],inconclusive: 13% [at 95.3 µM]
Nc1cccc(S(=O)(=O)O)c1,Potency,[1],inactive
same,Potency,[2]; [9],active: 0.0972 µM
c1ccc(CCNc2nc(-c3ccccc3)cs2)cc1,Potency,[3],active: 3.35 µM
same,Potency,[5],"inconclusive: 29.8 µM [cytotoxic, single point]"
CC(=O)OCC(=O)[C@@]12OC(C)(C)O[C@@H]1C[C@H]1[C@@H]3C[C@H](F)C4=CC(=O)C=C[C@]4(C)[C@@]3(F)[C@@H](O)C[C@@]12C,Potency,[3],"inconclusive: 0.0045 µM [activator, full curve, poor fit]"
same,Potency,[2]; [9],inactive
C=CCOc1c(Br)cc(Br)cc1Br,Potency,[1],"inconclusive: 30.6 µM [activator, partial curve, poor fit]"
same,Potency,[2]; [9],"inconclusive: 17.2 µM [fluorescent, partial curve]"
O=C1CCCCCCCCCCCC(=O)OCCO1,Potency,[3],inactive
same,"ratio activity, negative = MMP loss",[2]; [9],inconclusive: 3.78%
Cn1ccc2cc3c(cc21)CCN3C(=O)Nc1cccnc1,Potency,[3],active: 11.9 µM
same,Potency,[2]; [9],inconclusive: 11.9 µM [partial curve]
CCCCCCCCCCCCCCO,Potency,[1],inactive
same,Potency,[2]; [9],active: 61.1 µM
same,"ratio activity, negative = MMP loss",[2]; [9],inconclusive: -26.4% [at 95.3 µM]
ClC(Cl)(Br)Br,Potency,[1],inactive
same,"ratio activity, negative = MMP loss",[2]; [9],inconclusive: 4.83%
same,"fluorescence, % of fluorescent control",[6],inactive: 0.0772%
CCCc1cc(=O)[nH]c(=S)[nH]1,Potency,[1],inactive
same,"ratio activity, negative = MMP loss",[2]; at 83.2 µM (top of the series),inactive: -13.2% and inconclusive: 3.52%
same,"ratio activity, negative = MMP loss",[2]; at 95.3 µM (top of the series),inconclusive: 10.5%
CC1(C)O[C@@H]2C[C@H]3[C@@H]4CCC5=CC(=O)C=C[C@]5(C)[C@H]4[C@@H](O)C[C@]3(C)[C@]2(C(=O)CO)O1,Potency,[3],active: 0.0119 µM
same,Potency,[5],inactive
same,Potency,[2]; [9],"inconclusive: 2.66 µM [inhibitor, partial curve, poor fit]"
CCCn1cnc2c1c(=O)n(CCCCC(C)=O)c(=O)n2C,Potency,[3],"inconclusive: 23.7 µM [activator, partial curve, poor fit]"
COc1cc(OC)c(C(=O)CCCN2CCCC2)c(OC)c1,activation,[1],inconclusive: 5.05%
same,Potency,[2]; [9],inconclusive: 3.35 µM [single point]
same,"ratio activity, negative = MMP loss",[2]; [9],inconclusive: 33.8%
CCCCCOC(=O)c1ccc(O)cc1,Potency,[3],inconclusive: 22 µM [activator]
same,Potency,[7],"inconclusive: 61.9 µM [falling, partial curve, poor fit]"
same,Potency,[5],"inconclusive: 24.6 µM [cytotoxic, partial curve]"
same,Potency,[2]; [9],active: 6.94 µM
c1ccc(-c2ccc(-c3ccccc3)cc2)cc1,Potency,[3],"inconclusive: 3.97 µM [activator, full curve, poor fit]"
same,Potency,[2]; [9],"inconclusive: 0.004 µM [activator, full curve, poor fit]"
CCCCCCCCCCCCC(=O)O,Potency,[3],"inconclusive: 48.7 µM [activator, partial curve, poor fit]"
CCCCCCCCCCCCCC(=O)O,Potency,[1],inactive
same,"ratio activity, negative = MMP loss",[2]; at 83.2 µM (top of the series),inactive: -13.2%
same,"ratio activity, negative = MMP loss",[2]; [9],inconclusive: -9.26%
O=C(O)[C@H](O)[C@@H](O)[C@H](O)[C@H](O)CO,"ratio activity, negative = MMP loss",[2]; at 83.2 µM (top of the series),inactive: -22.1% and inactive: 19.7%
Cc1ccc(S(=O)(=O)N=C=O)cc1,Potency,[7],inactive
same,Potency,[2]; [9],inactive
COc1ccc2c(c1)c1c3n2CCN(C)C3=NCC1,Potency,[7],inactive
same,Potency,[2]; [9],inactive
CCOC(=O)CC(=O)C(=O)OCC,Potency,[7],inactive
C#Cc1cccc(Nc2ncnc3cc(OCCOC)c(OCCOC)cc23)c1,Potency,[7],"inconclusive: 15 µM [falling, partial curve, poor fit]"
same,Potency,[2]; [9],"inconclusive: 10.6 µM [fluorescent, partial curve]"
Cc1oc2c(NC(=O)c3c(Cl)cccc3Cl)cccc2c1C(C)(C)O,Potency,[7],inconclusive: 48.6 µM
same,Potency,[5],"inconclusive: 68.6 µM [cytotoxic, partial curve, poor fit]"
same,Potency,[2]; [9],inconclusive: 68.6 µM [inhibitor]
CCOc1cc(OCC)c(C(C)=O)cc1OCC,Potency,[7],"inconclusive: 5.35 µM [falling, partial curve, poor fit]"
same,Potency,[2]; [9],"inconclusive: 0.0673 µM [inhibitor, full curve, poor fit]"
C=C(C)C(=O)OCC(C)C,Potency,[7],"inconclusive: 69.5 µM [falling, single point]"
same,Potency,[2]; [9],inactive
CC(C)CC(C)(N)C#N (stereo not drawn),Potency,[7],inactive
same,"ratio activity, negative = MMP loss",[2]; [9],inconclusive: 20.3% [at 95.3 µM]
Cc1nc2ccc(CN(C)c3ccc(C(=O)N[C@@H](CCC(=O)O)C(=O)O)s3)cc2c(=O)[nH]1,Potency,[8],active: 106 nM and active: 150 nM
same,"ratio activity, negative = MMP loss",[2]; at 83.2 µM (top of the series),inactive: 4.06%
same,"ratio activity, negative = MMP loss",[2]; [9],inconclusive: 9.51%
C[Si](C)O[Si](C)(C)O[Si](C)(C)O[Si](C)C,Potency,[7],inactive
same,"ratio activity, negative = MMP loss",[2]; [9],inconclusive: 12.9%
Cc1c(N)cccc1[N+](=O)[O-],Potency,[7],"inconclusive: 27.8 µM [falling, partial curve, poor fit]"
same,Potency,[2]; [9],inactive
O=C(c1ccccc1)c1ccc(O)c(O)c1O,Potency,[7],"inconclusive: 30.9 µM [falling, partial curve, poor fit]"
same,Potency,[5],"inactive and inconclusive: 68.6 µM [cytotoxic, partial curve, poor fit]"
same,Potency,[2]; [9],"inconclusive: 61.6 µM [inhibitor, single point] and active: 48.6 µM"
CC12CCC(CC1=O)C2(C)C (stereo not drawn),Potency,[7],inactive
C[C@]12CCC(=O)C=C1CC[C@H]1[C@@H]3CC[C@](O)(C(=O)CO)[C@@]3(C)C[C@H](O)[C@@]12F,Potency,[7],inactive
same,Potency,[2]; [9],inactive
C[C@@H]1C[C@H]2[C@@H]3CCC4=CC(=O)C=C[C@]4(C)[C@@]3(F)[C@@H](O)C[C@]2(C)[C@H]1C(=O)CO,Potency,[7],"inconclusive: 29.8 µM [falling, partial curve, poor fit]"
C=CC(=O)NCOCCCC,Potency,[7],inactive
same,Potency,[2]; [9],inactive
C#CC(C)N(C)C(=O)Nc1ccc(Cl)cc1 (stereo not drawn),Potency,[7],inactive
same,Potency,[5],"inconclusive: 61.1 µM [cytotoxic, partial curve, poor fit]"
same,"ratio activity, negative = MMP loss",[2]; [9],inconclusive: -1.01%
C=CC(=O)OCCCCCCCC,Potency,[7],inactive
c1ccc(C(O[C@H]2CCCN(CCc3ccc4c(c3)OCO4)C2)c2ccccc2)cc1,Potency,[8],"inconclusive: 26.6 µM [cytotoxic, partial curve, poor fit]"
same,Potency,[2]; [9],"inconclusive: 26.6 µM [activator, partial curve]"
O=C1C(CCS(=O)c2ccccc2)C(=O)N(c2ccccc2)N1c1ccccc1 (stereo not drawn),Potency,[7],inactive
CC(=O)c1nccs1,Potency,[7],inactive
CCCCCCCCOC(=O)CCCCCCCCC(=O)OCCCCCCCC,Potency,[8],inactive
same,"ratio activity, negative = MMP loss",[2]; [9],inconclusive: 41.5%
CC(C)OC(=O)C(C)N(C(=O)c1ccccc1)c1ccc(F)c(Cl)c1 (stereo not drawn),Potency,[7],"inconclusive: 68.6 µM [falling, single point]"
same,Potency,[5],"inconclusive: 61.1 µM [cytotoxic, partial curve, poor fit]"
same,Potency,[2]; [9],"inconclusive: 61.1 µM [inhibitor, single point]"
CC(=O)NCCCS(=O)(=O)O,Potency,[7],"inconclusive: 23.6 µM [falling, partial curve, poor fit]"
O=[N+]([O-])c1ccc(Oc2ccc([N+](=O)[O-])cc2)cc1,Potency,[8],inactive
same,Potency,[2]; [9],active: 5.57 µM
CC(C)C[C@H]1C(=O)N2CCC[C@H]2[C@]2(O)O[C@](NC(=O)[C@@H]3C=C4c5cccc6[nH]c(Br)c(c56)C[C@H]4N(C)C3)(C(C)C)C(=O)N12,Potency,[7],"inconclusive: 21.1 µM [falling, partial curve] and inconclusive: 14.6 µM [falling, partial curve]"
